Experimental data taken from the RNAGym collection of RNA variant scans (doi:10.7554/elife.90254).
Read counts are not given, so values of variants with three or more changes are uncertain.

B1: LINE1-mini (parent)
chain: GGCAGAGCUCAACACAGCGUGGCAAAGUGGCUGUGGCUAGACUGCC

Variants of: B1
Experiment: self-cleavage, relative activity (ratio to wild type); higher = more cleavage; in vitro, sequencing; the parent is a self-cleaving ribozyme

| Variant | self-cleavage |
| --- | --- |
| GGCAGACCGUGACACAGCAAGGCAAAGUGGCUGUGGCUAGACUGCC | 0.01 |
| CGCAGAGCUCGACACAGCGUGGCAAGGUGGCUGUGGAUAGACUGCC | 0 |
| GGCAGCGGUCAACACAAGGUGGCAAAGUGGCUGUGGCUAGACUGAC | 0.02 |
| GGCAGAGCUCAACACUGCGUGGCAAGGUGGCUGUGGAUAGACUGGC | 0 |
| GGAAGAGCUGAACACAGCGUGGCAAAGUGGCUGUGGAUAGACUGCC | 0.02 |
| GGCAGAACUCAACACAGCGUGGCAAGGUGGCAGUGACUAGACUGCC | 0.01 |
| GCCAGAGCUCAACACAGCGGGGCACAGUGGCUAUGGCUAGACUGCA | 0.02 |
| GGCAGAGCUCACCACAGCGUGGCAAAGUGGGUGUGGCUCGACUGCC | 0.02 |
| GGCAGAGCUCAACACAGCGUGGCAAAGUGACAGUAGCUAGACUGCC | 0.03 |
| AGCAGAGCUCAAGACAGCGUGGGAAAGUGGCUGUGGUUAGACUGGC | 0.14 |
| GGCAGAGCUCUACACAGCGUGUCUAAGUGGCUGUGGAUAGUCUGCC | 0.01 |
| GGCAGAGCUCUACACAGCGUGGCAACUUGGCUUUGGCUAGACUGCC | 0.02 |
| GGCAGCGCUCAACACAUGGUGGCAAAGUGGCUGUGGCUAGACUGCC | 0.17 |
| GGCAGAGCUCAACACAGCGCGGCAAUGUCGCUUUGGCUAGCCUCCC | 0.02 |
| GGCAGAGCUCAAAAAAGCGUGGCAAAGUGUCCGUGGCUAGACUACC | 0.07 |
| GGCAGAGCUCAACACUGCGUUGCAAAGUGGCGGUGGCUGGACUGCC | 0.06 |
| GGCAGAGCUCAACACAGAGUGGCAAAGUUGCUGUGGCUAGACUGCA | 0.19 |
| GCCAGAGAUCAGCACAGCGUGGCAAAGUGGCUGUGGCUAGAAUGCC | 0.02 |
| GGCAGAGCUCAACACAGCGUGGCAAAGAGUCUGUGGCUAGUCUGCC | 0.13 |

| Variant | self-cleavage |
| --- | --- |
| UGCAGUUUUCAACACAGCGUGGCAAAGUGGCUGUGGCUAGACUGCC | 0.16 |
| GGCAGAGCUAAACACAGCGUGGCAAAGUGGCUGUGGCUACACAGCC | 0.05 |
| GGCAGAGCUCAGCAUAGCGUGGCAAAGUGGCUGUGGCUGGACUGCC | 0 |
| GGCAGAGCUCAACACAGAGUGGCAUGGUGGCUGUGGCUAGAAUGCC | 0.05 |
| GGCAGAGCUCAACACUGCGUGGCAGAGUGCCUGUGGCUAGACUGCC | 0.26 |
| GGCAGAGCUCAACUCAGCGAGGCAGAGUAGCUGUGGCUAGACUGCC | 0.15 |
| GGAAGAGCUCAACAUAGCCUGGCAAAGUGGCUGUGGCUAGACUGCC | 0.24 |
| GGCAGAGCGCAACACAGCGUGGCAAGGUGGCUGUGGCUAGCGUGCC | 0 |
| GGCAAAGCUUAAAACAGCGUGGCAAAUUGGCUGUUGCUACACUUCC | 0.03 |
| GGUAGAGCUCAACACAGCAUGGCAAAGUAUCUGUGGCUAGACUGCC | 0.53 |
| GCCAGAGCUCAACACAUAGUGGCAAAGUGGCUGUGGCUAGACUGCC | 0.07 |
| GGCAGAGCUCAACACAGCGCGGCAAAGAGGCUGUGGCUGGACUGCC | 0.01 |
| GGCAGAGCUCAACACAGAUUGGCAAUGUGGCUGUCGCUAGAGUGCC | 0.01 |
| GGCAAACCUCAACACAGCGUGGCUAAGUGCCUGUGGCUCGUCUGCA | 0.02 |
| GGCAGAGCUCAACACACCGUGGCAAAGUGGCUGUGGCGACACUGCC | 0.05 |
| GUCAGACCUCAACACAGCGUUGCAAAGUGGCUGUGGCUAUACUGCC | 0.04 |
| GGCAGAGCUCAACACAACCUGGCCAAGUGGCUGUGGCUAGACUACC | 0.08 |
| GGCAGUGCUUAACACGGCGUGGUAAAGAGGCUGUGGCUAGACUGCC | 0.16 |
| GGCAGAGGUCAACUCAUCGCGGCAAAGUGGCUCUGCCUAAACUGCC | 0.34 |

| Variant | self-cleavage |
| --- | --- |
| GGCCGAGCUCAACACAGCGUGGCAAAGGUGCUGUGGAUAGACUGCC | 0.06 |
| GGUAGAGCUGAGCACAGCGUGGCAAAGUGGCUGUGGCUAGACUGCC | 0.01 |
| CGGAGAGCUCAACACCGAGUGGCAAAGUGACUGUGGCUAGACUGCC | 0.02 |
| GGCAGAGCUAAACACAGCGUAGGAAAGUGGCUGUGGCUAGACUGCC | 0.03 |
| GGCGGAGCUCAACACAGCAUGGCCUAGUGGCUGUGGCUAGAGGGCC | 0.01 |
| GGCAGAGCUCAACACAGCGUGGUAAAGUGGCUGUGGGUAUACUGCC | 0.06 |
| GGCAGCGCACAACUCAGCGUGGCAAAGUGGCUGUGGCUAGAAUGCC | 0.16 |
| CGCAGAGCUGAACAAAGCGGGGCAAAGUGGCUAUGGGUAUACUGCC | 0 |
| GGCAGAGCUCAACACAGCUUGGCAAAGUGGCCGUGGCUAGACUGCU | 0.03 |
| GGCAGAGAUCACCACAGCGUGGCACAGUGGCUGUGGCUCGACUGCC | 0.01 |
| GGCAGAACUCAAGACAGCGUUGCAAAGUCGCUGUGCCAAGACUGCC | 0.02 |
| GGCAGAGCUCAACACAGCGUGGCAAAGUGGCGGUGUCUAAACUGCC | 0 |
| AGCAGAGCUCAACGCAGCGUGGCCAAGAGGCUGUGGCUAGACUGCC | 0.09 |
| GGCAGAUCUCAACACAAGGUGGCAAAGUGGCUGUGACAAGACUGCC | 0.27 |
| GGCGGAGAUCAACACACCGUGGCGAAGUGGCUGUGGCUAGACUGCC | 0.08 |
| GGCAGAGCUCAACACAGCGUUGCAAAGAGGCUGUGUCUAGACUGCG | 0.03 |
| GGCAGAGCUCAACACAUCGUGGCAAAGUCGCUGCCGCUAGACUGCC | 0.02 |
| UGCAGAGCUCAACACUUCGUGGCAAAGUGGCUGUGGCUAGACUGCC | 0.03 |
